{
  "source": "paper PMC4336329",
  "about": "(PLoS ONE, 2015)",
  "note": "Screen size: about 310,000 compounds; about 14,000 (4.5%) showed an effect of 50% or more. Effects have a minus sign here. The list shows a part of the results.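 Note: peak tail current of the secondary pulse compared with the same well before compound.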",
  "data": [
    {"target": "human ether-à-go-go-related gene (hERG) potassium channel (human, UniProt Q12809)", "sequence (Q12809 whole entry, looked up)": "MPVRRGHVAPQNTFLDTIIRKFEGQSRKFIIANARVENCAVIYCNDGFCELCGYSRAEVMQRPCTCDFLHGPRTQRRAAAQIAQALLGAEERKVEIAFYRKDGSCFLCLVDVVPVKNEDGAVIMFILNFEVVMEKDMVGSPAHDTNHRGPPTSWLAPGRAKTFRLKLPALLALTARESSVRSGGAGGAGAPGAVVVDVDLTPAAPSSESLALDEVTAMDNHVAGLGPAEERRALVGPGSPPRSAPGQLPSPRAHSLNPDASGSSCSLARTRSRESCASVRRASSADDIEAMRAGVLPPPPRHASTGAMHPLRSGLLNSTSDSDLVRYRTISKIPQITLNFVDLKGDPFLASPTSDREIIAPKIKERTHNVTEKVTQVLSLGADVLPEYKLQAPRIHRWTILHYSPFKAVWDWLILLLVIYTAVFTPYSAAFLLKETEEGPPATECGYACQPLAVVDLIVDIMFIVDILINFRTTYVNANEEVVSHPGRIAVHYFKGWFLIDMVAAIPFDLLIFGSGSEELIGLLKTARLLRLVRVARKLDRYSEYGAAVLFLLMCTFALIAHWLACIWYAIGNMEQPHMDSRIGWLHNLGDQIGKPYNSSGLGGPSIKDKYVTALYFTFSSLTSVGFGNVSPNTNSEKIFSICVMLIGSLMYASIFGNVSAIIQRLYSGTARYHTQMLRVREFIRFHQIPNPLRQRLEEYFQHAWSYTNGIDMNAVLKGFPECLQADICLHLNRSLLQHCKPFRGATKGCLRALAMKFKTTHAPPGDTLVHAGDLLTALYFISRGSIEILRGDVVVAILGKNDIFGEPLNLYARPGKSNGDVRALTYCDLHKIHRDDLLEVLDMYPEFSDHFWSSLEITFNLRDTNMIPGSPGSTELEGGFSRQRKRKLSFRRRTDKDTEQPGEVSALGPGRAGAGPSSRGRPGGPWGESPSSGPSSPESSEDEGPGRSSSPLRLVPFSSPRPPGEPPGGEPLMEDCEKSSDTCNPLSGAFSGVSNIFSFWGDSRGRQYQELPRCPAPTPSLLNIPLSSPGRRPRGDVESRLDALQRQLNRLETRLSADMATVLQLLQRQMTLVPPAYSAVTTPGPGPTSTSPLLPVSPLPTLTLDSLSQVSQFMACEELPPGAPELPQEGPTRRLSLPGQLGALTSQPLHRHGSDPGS", "assay": "primary screen, population patch clamp on CHO cells stably expressing hERG", "units": {"hERG current change (%, negative = inhibition) at 10uM": "%"}, "values": [
      {"smiles": "CCCCOC(=O)c1ccc(NS(=O)(=O)c2cc(-c3nnnn3CC)ccc2OC)cc1", "hERG current change (%, negative = inhibition) at 10uM": -12.4},
      {"smiles": "Clc1ccc(CN2CCc3c([nH]c4ccccc34)C2)cc1Cl", "hERG current change (%, negative = inhibition) at 10uM": -28.2},
      {"smiles": "COc1cc(C(=O)Nc2nnc(CC(=O)NCc3ccccc3)s2)cc(OC)c1OC", "hERG current change (%, negative = inhibition) at 10uM": -10.7},
      {"smiles": "O=C(c1ccc(COc2ccc(Cl)cc2)o1)N1N=C(C(F)F)CC1(O)C(F)F", "note": "(stereo not drawn)", "hERG current change (%, negative = inhibition) at 10uM": 1.74},
      {"smiles": "CCOc1ccccc1NC=C1C(=O)OC(C)(C)OC1=O", "hERG current change (%, negative = inhibition) at 10uM": 6.48},
      {"smiles": "C[N+](C)(C)CCCNC(=O)c1ccc(/C=N/O)nc1.[I-]", "hERG current change (%, negative = inhibition) at 10uM": 13.7},
      {"smiles": "Cn1ncc(Br)c1C(=O)NC12CC3CC(CC(C3)C1)C2", "hERG current change (%, negative = inhibition) at 10uM": -6.48},
      {"smiles": "Cn1cnnc1Sc1ccc(CN2CCN(C3CCCC3)C(CCO)C2)o1", "note": "(stereo not drawn)", "hERG current change (%, negative = inhibition) at 10uM": 3.06},
      {"smiles": "Cc1ccc(-n2nnnc2SCC(=O)c2c(N)n(C3CC3)c(=O)[nH]c2=O)cc1C", "hERG current change (%, negative = inhibition) at 10uM": -10.6},
      {"smiles": "COc1ccc(-c2cc3nc(C)c(CCC(=O)NC(C)CCc4ccco4)c(C)n3n2)c(OC)c1", "note": "(stereo not drawn)", "hERG current change (%, negative = inhibition) at 10uM": -62},
      {"smiles": "NC(=O)CC(NC(=O)c1ccccc1)c1ccc(NCCc2ccc(F)cc2)c([N+](=O)[O-])c1", "note": "(stereo not drawn)", "hERG current change (%, negative = inhibition) at 10uM": 16.2},
      {"smiles": "CCN(CC)c1ccc(/C=N/NC(=O)c2cccc(S(=O)(=O)Nc3ccccc3OC)c2)c(O)c1", "hERG current change (%, negative = inhibition) at 10uM": 12.1},
      {"smiles": "COc1ccc(C(=O)Nc2c3c(nn2-c2ccc([N+](=O)[O-])cc2)CS(=O)(=O)C3)cc1", "hERG current change (%, negative = inhibition) at 10uM": -9.85},
      {"smiles": "Cc1cc(OCC(=O)NC(Cc2ccc(Cl)cc2)C(=O)O)c2c(C)c(C)c(=O)oc2c1", "note": "(stereo not drawn)", "hERG current change (%, negative = inhibition) at 10uM": 4.07},
      {"smiles": "CN(Cc1c(C(=O)N/N=C/c2cccc(F)c2)nnn1-c1nonc1N)c1ccccc1", "hERG current change (%, negative = inhibition) at 10uM": 9.23},
      {"smiles": "COc1ccc(CN2CCN(S(=O)(=O)c3ccc(NC(C)=O)cc3)CC2)c(OC)c1OC.O=C(O)C(=O)O", "hERG current change (%, negative = inhibition) at 10uM": -0.574},
      {"smiles": "COc1ccc(-c2nnn(Cc3nn[nH]n3)n2)cc1OC", "hERG current change (%, negative = inhibition) at 10uM": 3.25},
      {"smiles": "CCOc1ccccc1NC(=O)Nc1cc(OC)ccc1OC", "hERG current change (%, negative = inhibition) at 10uM": 16.5},
      {"smiles": "CCC(CC)c1nnc(NC(=O)c2ccc3ccccc3n2)s1", "hERG current change (%, negative = inhibition) at 10uM": -3.32},
      {"smiles": "CCC(C(=O)OCC(=O)Nc1ccc(Cl)c(S(=O)(=O)N(C)C)c1)c1ccccc1", "note": "(stereo not drawn)", "hERG current change (%, negative = inhibition) at 10uM": -6.93},
      {"smiles": "COc1ccc(NC(=O)N(Cc2ccc(C)cc2)Cc2ccccn2)c(OC)c1", "hERG current change (%, negative = inhibition) at 10uM": -19.8},
      {"smiles": "Cc1coc2cc3oc(=O)c4c(c3cc12)CCCC4", "hERG current change (%, negative = inhibition) at 10uM": 3.62},
      {"smiles": "CC(NC(=O)/C(C#N)=C/c1ccc(Cl)c([N+](=O)[O-])c1)c1ccccc1", "note": "(stereo not drawn)", "hERG current change (%, negative = inhibition) at 10uM": 4.7},
      {"smiles": "CCOC(=O)c1sc(=S)n(C)c1NC(=O)c1ccc(OC)cc1", "hERG current change (%, negative = inhibition) at 10uM": 17.4},
      {"smiles": "O=C(O)c1cccc(Oc2ncnc3sc4c(c23)CCCC4)c1", "hERG current change (%, negative = inhibition) at 10uM": 34.5},
      {"smiles": "Cc1ccc(S(=O)(=O)NC2=NCN(CC(=O)[O-])CN2)cc1.[Na+]", "hERG current change (%, negative = inhibition) at 10uM": -7.49},
      {"smiles": "CC(C)Oc1ccc(C(=O)Nc2ccc3c(c2)n(C)c(=O)n3C)cc1", "hERG current change (%, negative = inhibition) at 10uM": -8.22},
      {"smiles": "O=C(Nc1sc2c(c1C(=O)O)CCCCC2)c1ccccc1", "hERG current change (%, negative = inhibition) at 10uM": 67.4},
      {"smiles": "CC1CN(S(=O)(=O)c2cccc(C(F)(F)F)c2)CC(C)O1", "note": "(stereo not drawn)", "hERG current change (%, negative = inhibition) at 10uM": 7.07},
      {"smiles": "N#Cc1ccccc1OCC(=O)NC(=O)NC1CCS(=O)(=O)C1", "note": "(stereo not drawn)", "hERG current change (%, negative = inhibition) at 10uM": 15.5},
      {"smiles": "CCOC(=O)COc1ccc(S(=O)(=O)NCc2ccco2)cc1", "hERG current change (%, negative = inhibition) at 10uM": -1.53},
      {"smiles": "COc1cccc(C(=O)NCC(=O)N/N=C(C)\\C=C\\c2ccccc2)c1", "hERG current change (%, negative = inhibition) at 10uM": -10},
      {"smiles": "Cc1cc(SCC(=O)c2ccccc2)nc(=O)[nH]1", "hERG current change (%, negative = inhibition) at 10uM": 17.6},
      {"smiles": "Cc1ccc(N2C(=O)NC(NC(=O)c3ccc(Cl)cc3)(C(F)(F)F)C2=O)cc1", "note": "(stereo not drawn)", "hERG current change (%, negative = inhibition) at 10uM": -31.5},
      {"smiles": "CCC(=O)Nc1ccc2c(c1)OCCO2", "hERG current change (%, negative = inhibition) at 10uM": -11.7},
      {"smiles": "COc1ccc(-n2c(/C=C3/C(=O)Nc4ccccc43)nc3ccccc3c2=O)cc1", "hERG current change (%, negative = inhibition) at 10uM": 15.9},
      {"smiles": "COC(=O)C1=C(c2ccc(OCc3ccccc3)cc2)C[C@@H]2CC[C@H]1N2C(=O)NCc1ccc(OC)c(OC)c1", "hERG current change (%, negative = inhibition) at 10uM": 7.11},
      {"smiles": "Cc1cc(N(CCO)CCO)ccc1N=Nc1cc(F)ccc1F", "hERG current change (%, negative = inhibition) at 10uM": -5.6},
      {"smiles": "COC(=O)Cc1[nH]n(-c2nc3ccccc3s2)c(=O)c1C(C)=Nc1ccc(OC)cc1", "hERG current change (%, negative = inhibition) at 10uM": -1.89},
      {"smiles": "CC(C(=O)Nc1cccc([N+](=O)[O-])c1)N(c1ccccc1)S(C)(=O)=O", "note": "(stereo not drawn)", "hERG current change (%, negative = inhibition) at 10uM": 10.5},
      {"smiles": "Cc1onc(-c2ccccc2)c1C(=O)Nc1ccc(S(=O)(=O)NC(C)(C)C)cc1", "hERG current change (%, negative = inhibition) at 10uM": 21.3},
      {"smiles": "Cc1cc(C)n(-c2ccc(C(=O)OCC(=O)Nc3cc(Cl)ccc3[N+](=O)[O-])cc2)n1", "hERG current change (%, negative = inhibition) at 10uM": -12.2},
      {"smiles": "CCOC(=O)N/N=C(\\C)c1ccc(Oc2ncccn2)cc1", "hERG current change (%, negative = inhibition) at 10uM": 17.1},
      {"smiles": "Cc1ccc2c(c1)N1C(=O)c3ccccc3C1C1=C(CC(C)(C)CC1=O)N2", "note": "(stereo not drawn)", "hERG current change (%, negative = inhibition) at 10uM": 19.7},
      {"smiles": "O=C(O)[C@@H]1Cc2ccccc2N1", "hERG current change (%, negative = inhibition) at 10uM": 8.54},
      {"smiles": "COCCCNC(=O)c1ccc2c(=O)n(CC3CCCO3)c(=S)[nH]c2c1", "note": "(stereo not drawn)", "hERG current change (%, negative = inhibition) at 10uM": -8.94},
      {"smiles": "O=C(O)CSCC(=O)N1CCN(Cc2ccc3c(c2)OCO3)CC1", "hERG current change (%, negative = inhibition) at 10uM": 15.2},
      {"smiles": "O=C1NC(=S)S/C1=C\\c1ccc(SCc2ccccc2)o1", "hERG current change (%, negative = inhibition) at 10uM": 12.4},
      {"smiles": "O=C(O)/C=C\\C(=O)Nc1ccc(OCc2ccccc2)cc1", "hERG current change (%, negative = inhibition) at 10uM": 27.4},
      {"smiles": "CCC(=O)Nc1ccc(C(=O)CSc2nc3ccccc3[nH]2)cc1", "hERG current change (%, negative = inhibition) at 10uM": 13.7},
      {"smiles": "CC(=O)c1ccc(NC(=O)N[C@@H](Cc2ccccc2)C(=O)O)cc1", "hERG current change (%, negative = inhibition) at 10uM": -11.4},
      {"smiles": "Cc1ccc(/C=N/n2c(C3CCCCC3)n[nH]c2=S)s1", "hERG current change (%, negative = inhibition) at 10uM": 15.1},
      {"smiles": "O=C1c2ccccc2C(=O)N1CCn1c(=O)oc2ccccc21", "hERG current change (%, negative = inhibition) at 10uM": 9.72},
      {"smiles": "Cc1cc(C)cc(N(C(C)C(=O)N2CCCC2)S(C)(=O)=O)c1", "note": "(stereo not drawn)", "hERG current change (%, negative = inhibition) at 10uM": 3.95}
    ]}
  ]
}
